Measured values published in ChEMBL document CHEMBL4888484, “Replenishing the malaria drug discovery pipeline: Screening and hit evaluation of the MMV Hit Generation Library 1 (HGL1) against asexual blood stage Plasmodium falciparum ,using a nano luciferase reporter read-out” (2022).
Among all 150,000 compounds or so, about 540 (0.36%) showed an effect of 50% or more. The list shows a part of the results.

Test system: Plasmodium falciparum
Assay: Primary screen in NF54 nanoGlo assay, in single point, at 2uM, 72h; a lower Z score goes with more inhibition
Type: functional, Erythrocyte
Conditions: timepoint 72 hour

**Q.** What does the source list for `COC(=O)CCc1csc(CCN2CCCC2=O)n1`?
**A.** % Inhibition: -5%; Z score: 0.66

**Q.** For `COc1ccc2c(C)c(C(=O)N3CCN[C@@H]4CS(=O)(=O)C[C@@H]43)oc2c1`, which “% Inhibition” value is on record?
**A.** -6%

**Q.** And the Z score?
**A.** 1.07

**Q.** What does the source list for `CC(=O)N(Cc1ccc(NCc2ccc(C)o2)cc1)C1CC1`?
**A.** % Inhibition: -5%; Z score: 0.72

**Q.** Which results are given for `CCC[C@H]1CN(C(=O)CCc2ccccc2C)C[C@@H]1N`?
**A.** % Inhibition: -21%; Z score: 2.65

**Q.** What does the source list for `COc1cc(NC(=O)c2nn(-c3ccc(Cl)cc3)c(=O)n(C)c2=O)cc(OC)c1OC`?
**A.** % Inhibition: -5%; Z score: 0.47

**Q.** What does the source list for `O=C1COc2ccc(C(=O)N3CCN(c4ccccc4)CC3)cc2N1`?
**A.** % Inhibition: -3%; Z score: 0.42

**Q.** Which “% Inhibition” value does the source give for `CC1(C)C[C@@]1(NC(=O)Nc1cccc(N2C(=O)CCCC2=O)c1)c1ccccc1` here?
**A.** -4%

**Q.** And the Z score?
**A.** 0.47

**Q.** What does the source list for `C#CCN(C(=O)c1cnc2n1CCOC2)C1CC1`?
**A.** % Inhibition: -6%; Z score: 1.25

**Q.** For `COC(=O)C[C@H]1CCCN1C(=O)c1cccc(C#CCO)c1`, which “% Inhibition” value is on record?
**A.** 1%

**Q.** What about the Z score of the same molecule?
**A.** -0.23

**Q.** For `c1ccc(-n2cc(Cn3nccc3NCc3cncs3)cn2)cc1`, which “% Inhibition” value is on record?
**A.** -12%

**Q.** What about the Z score of the same molecule?
**A.** 1.6

**Q.** How did the “% Inhibition” value turn out when `CCOC(=O)c1cc(NC(=O)N2CCN(C)CC2)c(C)nc1C` was run?
**A.** -13%

**Q.** And the Z score?
**A.** 1.56

**Q.** What does the source list for `CC(=O)N1CC[C@H](CN(C)S(=O)(=O)CCc2cccs2)C1`?
**A.** % Inhibition: 0%; Z score: 0.04

**Q.** For `O=C(O)[C@@H]1CCCN1c1nc(-c2ccccc2)c2cc(Br)ccc2n1`, which “% Inhibition” value is on record?
**A.** -11%

**Q.** What about the Z score of the same molecule?
**A.** 1.36

**Q.** For `CC(C)(C)c1nc(CNC2[C@@H]3CCO[C@@H]3C2(C)C)n[nH]1` (stereo partly specified), which “% Inhibition” value is on record?
**A.** -12%

**Q.** What about the Z score of the same molecule?
**A.** 2.3

**Q.** How did the “% Inhibition” value turn out when `O=C(c1cccc(-c2ncn[nH]2)c1)N1CCC[C@@](O)(C(F)(F)F)C1` was run?
**A.** -7%

**Q.** What about the Z score of the same molecule?
**A.** 1.48

**Q.** Which results are given for `Cc1nn(C)cc1C(=O)N1CCC(CCc2noc(N(C)C)n2)CC1`?
**A.** % Inhibition: 5%; Z score: -0.75

**Q.** Which “% Inhibition” value does the source give for `CC(CO)(CO)NCc1cc(F)c(F)cc1F` here?
**A.** -2%

**Q.** What about the Z score of the same molecule?
**A.** 0.24

**Q.** For `CN(CCc1ccccn1)[C@H]1CCCN(Cc2nc3ccc(F)cc3[nH]2)C1`, which “% Inhibition” value is on record?
**A.** 0%

**Q.** And the Z score?
**A.** -0.03

**Q.** With `CCOc1ccc(NC(=O)c2nn(-c3ccccc3)c3ccccc3c2=O)cc1` as the molecule, how does the “% Inhibition” value read?
**A.** -1%

**Q.** What about the Z score of the same molecule?
**A.** 0.13

**Q.** Which “% Inhibition” value does the source give for `CN(Cc1cnccn1)C(=O)Nc1ccc(Br)c(F)c1` here?
**A.** -11%

**Q.** What about the Z score of the same molecule?
**A.** 1.63

**Q.** Which “% Inhibition” value does the source give for `CCOc1ccc(CNC(=O)c2ccc(-c3noc(-c4ccccc4)n3)s2)cc1OC` here?
**A.** 4%

**Q.** And the Z score?
**A.** -0.63

**Q.** `Cc1nn(C)c(Cl)c1CNc1nn(CC(F)(F)F)cc1Cl` was tested. Which “% Inhibition” value did it give?
**A.** -9%

**Q.** What about the Z score of the same molecule?
**A.** 1.23

**Q.** For `Cc1nccn1[C@@H](C)C(=O)NC1CCN(c2cnccn2)CC1`, which “% Inhibition” value is on record?
**A.** -13%

**Q.** And the Z score?
**A.** 1.83

**Q.** For `Clc1ccc(NC2(c3noc([C@@H]4CCCCO4)n3)CCC2)cc1`, which “% Inhibition” value is on record?
**A.** 35%

**Q.** What about the Z score of the same molecule?
**A.** -4.67

**Q.** How did the “% Inhibition” value turn out when `COc1ccccc1C1=NS(=O)(=O)N(C)C(C(=O)N2CCN(c3ccccc3)CC2)=C1` was run?
**A.** 2%

**Q.** What about the Z score of the same molecule?
**A.** -0.47

**Q.** What does the source list for `Cc1nnc(COC(=O)c2nccnc2N)o1`?
**A.** % Inhibition: -5%; Z score: 0.81

**Q.** For `Cc1cc(Cl)c2oc(C(=O)N(Cc3ccccn3)C[C@@H]3CCC(=O)N3)c(C)c2c1`, which “% Inhibition” value is on record?
**A.** -12%

**Q.** What about the Z score of the same molecule?
**A.** 1.82

**Q.** How did the “% Inhibition” value turn out when `O=C(Nc1ccccc1F)N1CCC(OC[C@H]2CCCO2)CC1` was run?
**A.** 7%

**Q.** What about the Z score of the same molecule?
**A.** -0.9

**Q.** With `c1ccc(-n2ncc(CN3CC(n4cccn4)C3)n2)cc1` as the molecule, how does the “% Inhibition” value read?
**A.** -19%

**Q.** What about the Z score of the same molecule?
**A.** 2.39

**Q.** With `CC[C@@H](CO)N1CCN(S(=O)(=O)c2cccc(NC(=O)c3ccn(C(C)C)n3)c2)CC1` as the molecule, how does the “% Inhibition” value read?
**A.** -9%

**Q.** What about the Z score of the same molecule?
**A.** 1.53

**Q.** `COC(=O)C1C2CCCC2CN1C(=O)Cc1c(C)nn(C)c1C` (stereo unspecified) was tested. Which “% Inhibition” value did it give?
**A.** 0%

**Q.** And the Z score?
**A.** -0.03

**Q.** For `CCC(NC(=O)N1CCOCC1C1CC1)c1c(C)noc1C` (stereo unspecified), which “% Inhibition” value is on record?
**A.** -11%

**Q.** And the Z score?
**A.** 2.02

**Q.** Which “% Inhibition” value does the source give for `O=C(c1ccc2ncccc2c1)N(CCN1CCCC1)C1CCOCC1` here?
**A.** -6%

**Q.** And the Z score?
**A.** 1

**Q.** For `O=C(c1nn(-c2ccc(F)cc2)cc1O)N1CC[C@H](c2c(F)cccc2F)C1`, which “% Inhibition” value is on record?
**A.** -9%

**Q.** And the Z score?
**A.** 1.03

**Q.** What does the source list for `O=C(c1cccc(F)c1)N1CCN(c2nnc3ccc(C(F)(F)F)cn23)CC1`?
**A.** % Inhibition: 26%; Z score: -2.92

**Q.** Which “% Inhibition” value does the source give for `CCCOc1ccc(CN2C(=O)c3ccc4c5c(ccc(c35)C2=O)CC4)cc1OC` here?
**A.** -13%

**Q.** And the Z score?
**A.** 1.82

**Q.** Which results are given for `CC(C)(C)c1cc(C(=O)NCCc2c[nH]c3ccccc23)nc2[nH][nH]c(=O)c12`?
**A.** % Inhibition: -8%; Z score: 1

**Q.** `Cc1nnc(CN(C)CCC2CCCC2)n1C` was tested. Which “% Inhibition” value did it give?
**A.** -7%

**Q.** What about the Z score of the same molecule?
**A.** 1.12

**Q.** How did the “% Inhibition” value turn out when `c1ccc(CC2CCC(NC(c3cccnc3)c3ncc[nH]3)C2)cc1` (stereo unspecified) was run?
**A.** 4%

**Q.** And the Z score?
**A.** -0.69

**Q.** Which results are given for `O=C(Nc1cc(Cl)cc(Cl)c1)[C@@H]1CCCN1CC(=O)N1CCNC1=O`?
**A.** % Inhibition: -10%; Z score: 1.45

**Q.** Which “% Inhibition” value does the source give for `CC(C)CNC(=O)CCc1ccc(F)cc1` here?
**A.** -4%

**Q.** What about the Z score of the same molecule?
**A.** 0.53

**Q.** Which “% Inhibition” value does the source give for `O=C(Cn1ccc2ccccc21)N1CC(O)C1` here?
**A.** -2%

**Q.** What about the Z score of the same molecule?
**A.** 0.24

**Q.** How did the “% Inhibition” value turn out when `COc1ccccc1CNC(=O)[C@H]1CN(S(=O)(=O)c2cccnc2)CC12CCCCC2` was run?
**A.** 31%

**Q.** And the Z score?
**A.** -3.55

**Q.** How did the “% Inhibition” value turn out when `Cc1ccccc1N1CCN(C(=O)[C@H]2CCCN(c3nnc4cccc(C)n34)C2)CC1` was run?
**A.** -17%

**Q.** What about the Z score of the same molecule?
**A.** 2.87

**Q.** For `COc1ccc(CCS(=O)(=O)NCC[C@H]2CCCCN2S(=O)(=O)c2cccs2)cc1`, which “% Inhibition” value is on record?
**A.** 2%

**Q.** What about the Z score of the same molecule?
**A.** -0.32

**Q.** `CCc1c[nH]c(CNC(=O)C2(C(=O)NC3CC3)CCC2)n1` was tested. Which “% Inhibition” value did it give?
**A.** 32%

**Q.** And the Z score?
**A.** -4.6

**Q.** `C[C@H]1CCCCN1C1CN(Cc2ccc(OCCCn3ccnc3)cc2)C1` was tested. Which “% Inhibition” value did it give?
**A.** -3%

**Q.** And the Z score?
**A.** 0.37

**Q.** What does the source list for `Cc1nc(CC(C)C)c(C(=O)N2CCOCC3(CCCC3)C2)s1`?
**A.** % Inhibition: 2%; Z score: -0.31

**Q.** For `CCCNC(=O)CNC(=O)Nc1ccc(C)cn1`, which “% Inhibition” value is on record?
**A.** -10%

**Q.** What about the Z score of the same molecule?
**A.** 1.43

**Q.** For `Cc1ccccc1CN1C(=O)OC(c2ccc(NC(=O)c3ccccc3)cc2)C1C(=O)Nc1ccccc1` (stereo unspecified), which “% Inhibition” value is on record?
**A.** -7%

**Q.** And the Z score?
**A.** 0.86

**Q.** With `CO[C@H]1COC[C@@H]1NS(=O)(=O)N1CCC(C)(C)CC1` as the molecule, how does the “% Inhibition” value read?
**A.** -4%

**Q.** And the Z score?
**A.** 0.48

**Q.** Which results are given for `c1cncc([C@H]2CCN(Cc3csc(-c4ccco4)n3)C2)c1`?
**A.** % Inhibition: -4%; Z score: 0.78

**Q.** `C[C@@]12CCCN1C(=O)N(C1CCN(Cc3ccccn3)CC1)C2=O` was tested. Which “% Inhibition” value did it give?
**A.** -4%

**Q.** And the Z score?
**A.** 0.52
